Data: PubChem BioAssay (Tox21)
Values joined by “and” are separate entries in the source; they are usually repeats but may differ in a detail not shown here. Equal entries are not always repeated. Inconclusive means that the source gave no clear call. Such entries were picked first, then a sample of the others. Where the call is inconclusive, the potency comes from a doubtful curve fit. Active and inactive are the calls of the source. Unless noted, calls follow the shape of the dose curve; as a rule, active = well fitted curve in the direction sought with a large enough effect in the repeat runs; inconclusive = weak or mixed curves; inactive = no such curve, though single readings can be large; an effect the other way counts as inactive or inconclusive.

assay: qHTS assay for small molecule activators of the heat shock response signaling pathway - cell viability counter screen (AID 743209); settings: HSE-bla HeLa viability, CellTiter-Glo luminescence, 5 h; activity change, negative = cytotoxicity: at 62.6 µM (top of the series) unless noted; also: nearly all actives have a fitted effect of over 50% in size; as to activity change, negative = cytotoxicity: % is scaled to controls: 0 for no effect and ±100 for the full control effect
In short: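 CellSensor HSE-bla HeLa cells, plated overnight at 37 C/5% CO2, were exposed to compounds in DMSO for 5 h at 37 C. Viability was then read in the same wells by CellTiter-Glo luminescence after 30 min at room temperature.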
Potency is read from the fitted curve at half-maximal effect; tags tell the direction and shape of the fitted curve or compound fluorescence and quenching.

Structure (SMILES) | Potency | activity change, negative = cytotoxicity
CC(C)(C)CC(C)(C)c1ccccc1O | active: 55.2 µM | 
C=C1C(CCl)(CCl)C2(Cl)C(Cl)C(Cl)C1(Cl)C2(Cl)Cl (stereo not given) | active: 54.3 µM | 
O=C(Oc1cccc2cccnc12)c1ccccc1 | inconclusive: 1.68 µM [cytotoxic, full curve] | 
CC1=C(/C=C/C(C)=C/C=C/C(C)=C\C=O)C(C)(C)CCC1 | inconclusive: 52 µM [cytotoxic, single point] | 
Clc1ccc2n[nH]nc2c1 |  | inactive: 0.256%
C=CC(=O)OCCOCCOCCOCCOC(=O)C=C | inconclusive: 48.5 µM [cytotoxic, partial curve, poor fit] | 
COc1cc(-c2nc(NC(=O)c3cc4cc(C)cc(C)c4n3CC(=O)O)sc2CCC2CCCCC2)c(OC)cc1Cl | inconclusive: 10 µM [cytotoxic] | 
CCCCC(CC)CN=C(N)NC(N)=NCCCCCCN=C(N)NC(N)=NCC(CC)CCCC (stereo not given) | active: 23.7 µM | 
Cc1ccc(-c2cc(C(F)(F)F)nn2-c2ccc(S(N)(=O)=O)cc2)cc1 | inconclusive: 54.7 µM [cytotoxic, single point] and inactive | 
CC1=CC(=O)c2ccccc2C1=O | active: 15.5 µM and active: 2.66 µM | 
CCCCCCCCCCCCCC[P+](CCCC)(CCCC)CCCC (tested in a mixture with another compound) | active: 11 µM | 
[Cl][Bi]([Cl])([c]1ccccc1)([c]1ccccc1)[c]1ccccc1 | active: 48.7 µM | 
C[C@@H](NCCCc1cccc(C(F)(F)F)c1)c1cccc2ccccc12 | inconclusive: 33.5 µM [cytotoxic, single point] | 

assay: qHTS assay for small molecule activators of the heat shock response signaling pathway (AID 743210; active = well fitted activation curve with a large enough effect in the signal ratio in the repeat runs, with a control signal flat, not every such curve was filed as active; inconclusive = weak or mixed curves; the % refers to the signal ratio); settings: HeLa HSE-bla reporter, beta-lactamase ratio, 5 h; activation: at 62.6 µM (top of the series)
In short: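 In HSE-bla HeLa cells, 5 h compound incubation (37 C) precedes addition of LiveBLAzer B/G substrate; after 2.5 h at room temperature, fluorescence intensity indicates reporter induction.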

Structure (SMILES) | Potency
CC(C)(C)CC(C)(C)c1ccccc1O | inconclusive: 49.2 µM [falling, partial curve]
Cc1ccc2nc(-c3ccc(N)cc3)sc2c1S(=O)(=O)O | inconclusive: 26.1 µM [activator]
C=C1C(CCl)(CCl)C2(Cl)C(Cl)C(Cl)C1(Cl)C2(Cl)Cl (stereo not given) | inconclusive: 56.4 µM
O=C(CCCCCCCCc1cccnc1)N1CCC(C=C(c2ccccc2)c2ccccc2)CC1 | inconclusive: 34.7 µM
O=C(Oc1cccc2cccnc12)c1ccccc1 | inconclusive: 2.56 µM
CN(C)c1ccc(SC#N)cc1 | inconclusive: 40.4 µM [activator]
CCCCCCCCCOC(=O)c1ccc(O)cc1 | inconclusive: 38.3 µM
Oc1c(Cl)cc(Cl)c2cccnc12 | inconclusive: 0.779 µM
Clc1ccc2n[nH]nc2c1 | inconclusive: 43.6 µM [partial curve]
Clc1nc(C(Cl)(Cl)Cl)c(Cl)c(Cl)c1Cl | inconclusive: 32.1 µM
CCCCCCCCCCCCN1CCCC1=O | inconclusive: 32.1 µM
C=CC(=O)OCC(CO)(COCC(COC(=O)C=C)(COC(=O)C=C)COC(=O)C=C)COC(=O)C=C | inconclusive: 5.86 µM
CC(C)(C)c1ccc(O)c(O)c1 | inconclusive: 37.3 µM and inconclusive: 41.1 µM
O=c1n(CC2CO2)c(=O)n(CC2CO2)c(=O)n1CC1CO1 (stereo not given) | active: 35.8 µM and active: 43.6 µM
CCC(C)(C)c1cc(O)c(C(C)(C)CC)cc1O | inconclusive: 52.9 µM
COc1cc(-c2nc(NC(=O)c3cc4cc(C)cc(C)c4n3CC(=O)O)sc2CCC2CCCCC2)c(OC)cc1Cl | inconclusive: 24.3 µM
Cc1ccc(-c2cc(C(F)(F)F)nn2-c2ccc(S(N)(=O)=O)cc2)cc1 | inconclusive: 58 µM
CC1=CC(=O)c2ccccc2C1=O | inconclusive: 45.3 µM and inconclusive: 32.2 µM
CN(C)C(=O)C1(N2CCCCC2)CCN(CC[C@@]2(c3ccc(Cl)c(Cl)c3)CN(C(=O)c3ccccc3)CCO2)CC1 | inconclusive: 53.3 µM
CCCCCCCCCCCCCC[P+](CCCC)(CCCC)CCCC (tested in a mixture with another compound) | inconclusive: 13.9 µM
C[C@@H](NCCCc1cccc(C(F)(F)F)c1)c1cccc2ccccc12 | inconclusive: 33.5 µM [single point]
CCCCCCCCCCCCCCCCCC[N+](C)(C)C | inconclusive: 53.1 µM
C[C@]12CC[C@@H]3c4ccc(O)cc4CC[C@H]3[C@@H]1CC[C@@H]2OC(=O)CCC1CCCC1 | inconclusive: 57.1 µM and inconclusive: 33.5 µM

assay: qHTS assay to identify small molecule agonists of the peroxisome proliferator-activated receptor delta (PPARd) signaling pathway - cell viability counter screen (AID 743211); settings: PPARd-bla HEK293H viability, CellTiter-Glo luminescence, 17 h; activity change, negative = cytotoxicity: at 62.6 µM (top of the series); also: nearly all actives have a fitted effect of over 55% in size
In short: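 Following 5 h plating at 37 C and 5% CO2, PPARd UAS-bla HEK293H cells took up test compounds for 17 h. Viability was quantified by luminescence 30 min after CellTiter-Glo addition at room temperature.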

Structure (SMILES) | Potency
CC(C)(C)CC(C)(C)c1ccccc1O | active: 43.9 µM
Cc1ccc2nc(-c3ccc(N)cc3)sc2c1S(=O)(=O)O | inconclusive: 27.1 µM [cytotoxic, single point]
O=C(CCCCCCCCc1cccnc1)N1CCC(C=C(c2ccccc2)c2ccccc2)CC1 | active: 12.3 µM
O=C(Oc1cccc2cccnc12)c1ccccc1 | active: 3.35 µM
Oc1c(Cl)cc(Cl)c2cccnc12 | inconclusive: 2.37 µM [cytotoxic, full curve]
CC1=C(/C=C/C(C)=C/C=C/C(C)=C\C=O)C(C)(C)CCC1 | active: 41.3 µM
Clc1nc(C(Cl)(Cl)Cl)c(Cl)c(Cl)c1Cl | active: 34.7 µM
CC(C)(C)c1ccc(O)c(O)c1 | active: 25.4 µM and inconclusive: 21.9 µM [cytotoxic]
C=CC(=O)OCCOCCOCCOCCOC(=O)C=C | inconclusive: 55.2 µM [cytotoxic, single point]
C[C@H]1O[C@@H](O[C@H]2CC[C@@]3(C)[C@H](CC[C@@H]4[C@@H]3C[C@@H](O)[C@]3(C)[C@@H](C5=CC(=O)OC5)CC[C@]43O)C2)C[C@H](O)[C@@H]1O[C@H]1C[C@H](O)[C@H](O[C@H]2C[C@H](O)[C@H](O[C@@H]3O[C@H](CO)[C@@H](O)[C@H](O)[C@H]3O)[C@@H](C)O2)[C@@H](C)O1 | active: 0.298 µM
CCC(C)(C)c1cc(O)c(C(C)(C)CC)cc1O | inconclusive: 54.9 µM [cytotoxic, single point]
CCCCC(CC)CN=C(N)NC(N)=NCCCCCCN=C(N)NC(N)=NCC(CC)CCCC (stereo not given) | active: 6.68 µM
Cc1ccc(-c2cc(C(F)(F)F)nn2-c2ccc(S(N)(=O)=O)cc2)cc1 | inconclusive: 54.7 µM [cytotoxic, single point] and inconclusive: 33.5 µM [cytotoxic]
CC(CN1c2ccccc2Sc2ccccc21)N(C)C (stereo not given) | inconclusive: 33.5 µM [cytotoxic]
CN(C)C(=O)C1(N2CCCCC2)CCN(CC[C@@]2(c3ccc(Cl)c(Cl)c3)CN(C(=O)c3ccccc3)CCO2)CC1 | active: 11.5 µM
C[C@@H](NCCCc1cccc(C(F)(F)F)c1)c1cccc2ccccc12 | active: 11.9 µM
CCCCCCCCCCCCCCCCCC[N+](C)(C)C | active: 13.8 µM
CC(O)(c1ccc(Cl)cc1)c1ccc(Cl)cc1 | inconclusive: 43.6 µM [cytotoxic, partial curve]
C[C@]12CC[C@@H]3c4ccc(O)cc4CC[C@H]3[C@@H]1CC[C@@H]2OC(=O)CCC1CCCC1 | inconclusive: 61.6 µM [cytotoxic, single point] and inconclusive: 33.5 µM [cytotoxic, single point]
